PMC6043480
Where a chain is given by its changes, count along the chain named. In names and notes the source's numbering stands. These are yes or no findings as the source states them, for the method shown. In cells and extracts the contact can be indirect.

Chains of the proteins cited; added tags and fusions are not shown.
UniProt Q12888: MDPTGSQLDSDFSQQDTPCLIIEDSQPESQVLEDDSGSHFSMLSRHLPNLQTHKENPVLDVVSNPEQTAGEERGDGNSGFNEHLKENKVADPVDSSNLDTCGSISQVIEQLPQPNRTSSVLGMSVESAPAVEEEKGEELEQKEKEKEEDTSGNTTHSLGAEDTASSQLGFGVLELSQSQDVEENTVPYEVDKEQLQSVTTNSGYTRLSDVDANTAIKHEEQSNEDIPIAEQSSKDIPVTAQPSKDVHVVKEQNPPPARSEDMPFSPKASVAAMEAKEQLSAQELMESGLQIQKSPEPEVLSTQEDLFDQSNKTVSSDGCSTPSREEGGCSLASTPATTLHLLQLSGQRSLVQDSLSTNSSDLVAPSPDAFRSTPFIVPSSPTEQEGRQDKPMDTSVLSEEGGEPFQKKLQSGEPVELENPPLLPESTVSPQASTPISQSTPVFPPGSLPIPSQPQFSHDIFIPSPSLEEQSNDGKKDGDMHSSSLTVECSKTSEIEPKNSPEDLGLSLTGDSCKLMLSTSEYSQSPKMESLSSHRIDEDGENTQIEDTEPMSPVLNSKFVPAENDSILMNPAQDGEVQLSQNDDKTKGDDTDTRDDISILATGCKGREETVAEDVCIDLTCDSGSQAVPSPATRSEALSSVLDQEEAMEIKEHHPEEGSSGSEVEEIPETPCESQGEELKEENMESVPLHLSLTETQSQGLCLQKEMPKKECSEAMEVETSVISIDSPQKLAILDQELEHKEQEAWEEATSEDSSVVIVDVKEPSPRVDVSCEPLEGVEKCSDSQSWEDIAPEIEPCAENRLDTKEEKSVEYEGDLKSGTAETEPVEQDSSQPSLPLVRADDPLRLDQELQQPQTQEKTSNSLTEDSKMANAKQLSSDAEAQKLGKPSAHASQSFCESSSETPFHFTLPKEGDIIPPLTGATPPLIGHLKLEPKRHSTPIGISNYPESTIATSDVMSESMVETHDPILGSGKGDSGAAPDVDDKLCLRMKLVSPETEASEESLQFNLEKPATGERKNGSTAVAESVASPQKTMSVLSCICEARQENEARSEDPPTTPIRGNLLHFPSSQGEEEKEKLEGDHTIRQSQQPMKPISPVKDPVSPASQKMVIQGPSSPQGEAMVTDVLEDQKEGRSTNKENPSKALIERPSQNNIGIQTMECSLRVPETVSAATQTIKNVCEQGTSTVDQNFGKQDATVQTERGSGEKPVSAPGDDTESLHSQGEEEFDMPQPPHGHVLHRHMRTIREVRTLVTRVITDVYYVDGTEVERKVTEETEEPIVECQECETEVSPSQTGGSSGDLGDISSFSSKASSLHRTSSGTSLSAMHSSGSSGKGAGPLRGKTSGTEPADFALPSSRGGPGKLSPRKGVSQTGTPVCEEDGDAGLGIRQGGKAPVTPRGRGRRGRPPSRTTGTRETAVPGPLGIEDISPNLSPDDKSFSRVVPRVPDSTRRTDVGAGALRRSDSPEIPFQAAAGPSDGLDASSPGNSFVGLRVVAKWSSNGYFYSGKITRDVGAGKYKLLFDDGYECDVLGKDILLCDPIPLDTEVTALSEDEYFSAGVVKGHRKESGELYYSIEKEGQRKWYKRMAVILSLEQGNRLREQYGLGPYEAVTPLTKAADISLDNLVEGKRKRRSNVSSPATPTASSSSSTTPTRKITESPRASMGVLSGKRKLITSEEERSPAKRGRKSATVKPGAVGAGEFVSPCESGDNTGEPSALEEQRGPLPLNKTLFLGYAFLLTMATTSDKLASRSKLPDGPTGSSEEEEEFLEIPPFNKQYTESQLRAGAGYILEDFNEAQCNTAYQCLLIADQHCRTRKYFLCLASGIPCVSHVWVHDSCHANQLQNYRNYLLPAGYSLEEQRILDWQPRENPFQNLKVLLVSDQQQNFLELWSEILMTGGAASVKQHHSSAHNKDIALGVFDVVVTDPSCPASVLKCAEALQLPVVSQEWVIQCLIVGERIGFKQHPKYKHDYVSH

Biological target: 53BP1 expressed in 293T cells (human) (UniProt Q12888)
Assay: co-IP; TIRR or its mutants and 53BP1 expressed in 293T cells; lysis in NETN-300, streptavidin sepharose beads 2 h 4 °C, NETN-100 washes; western blot

B1: TIRR P105A expressed in 293T cells (protein, UniProt Q9BRJ7 1-211)
chain: MSTAAVPELKQISRVEAMRLGPGWSHSCHAMLYAANPGQLFGRIPMRFSVLMQMRFDGLLGFPGGFVDRRFWSLEDGLNRVLGLGLGCLRLTEADYLSSHLTEGAHRVVAHLYARQLTLEQLHAVEISAVHSRDHGLEVLGLVRVPLYTQKDRVGGFPNFLSNAFVSTAKCQLLFALKVLNMMPEEKLVEALAAATEKQKKALEKLLPASS
**Q.** B1 was tested. Which binding did it give?
**A.** no binding

B2: TIRR K10E expressed in 293T cells (protein, UniProt Q9BRJ7 1-211)
chain: B1 chain with K10E, A105P
**Q.** Which binding does the source give for B2 here?
**A.** no binding
